Results taken from the antibiotic and cytotoxicity screens of Wong et al. (2023).
The list shows a part of the results.

Legend:
HSkMC = human skeletal muscle cells; experiment: cytotoxicity call (relative viability < 0.9); details: 10 µM
HepG2 = experiment: cytotoxicity call (relative viability < 0.9); details: 10 µM
S. aureus RN4220 = experiment: growth inhibition call (relative growth <= 0.2); details: 50 µM

C[C@@H]1CN([C@H](C)CO)C(=O)c2cc(NC(=O)Cc3ccccc3)ccc2O[C@@H](C)CCCCO[C@@H]1CN(C)S(=O)(=O)c1cccs1
inactive: cytotoxicity call (HSkMC) | cytotoxicity call (HepG2) | growth inhibition call (S. aureus RN4220)

CCCCCCCCCCCCCCCC(=O)OCC(NC(=O)C(Cl)Cl)C(O)c1ccc([N+](=O)[O-])cc1 (stereo not drawn)
inactive: cytotoxicity call (HSkMC) | cytotoxicity call (HepG2) | growth inhibition call (S. aureus RN4220)

NC(=O)CC(N)=S
inactive: cytotoxicity call (HSkMC) | cytotoxicity call (HepG2) | growth inhibition call (S. aureus RN4220)

Cc1ccc(-c2ccc3c(c2)O[C@@H](CN(C)Cc2cncnc2)[C@@H](C)CN([C@@H](C)CO)S3(=O)=O)cc1
inactive: cytotoxicity call (HSkMC) | cytotoxicity call (HepG2) | growth inhibition call (S. aureus RN4220)

C[C@@H]1CN([C@H](C)CO)C(=O)c2cccc(NC(=O)c3cnccn3)c2O[C@H]1CN(C)Cc1ccc2c(c1)OCO2
inactive: cytotoxicity call (HSkMC) | cytotoxicity call (HepG2) | growth inhibition call (S. aureus RN4220)

C[C@H]1CN([C@@H](C)CO)C(=O)c2cccc(NC(=O)C3CCOCC3)c2O[C@H]1CN(C)S(=O)(=O)c1cccs1
inactive: cytotoxicity call (HSkMC) | cytotoxicity call (HepG2) | growth inhibition call (S. aureus RN4220)
